For 31 compounds, activity change, negative = inhibition results are on record in PubChem BioAssay AID1745853 (National Center for Advancing Translational Sciences (NCATS), 2022).

Experiment in all cases: Primary Screen for Target Class Profiling of Small Molecule Inhibitors of Methyltransferases
Experiment [1] addresses Glycine N-methyltransferase (Homo sapiens) (UniProt Q14749). To be noted: purified enzyme, MTase-Glo SAH luminescence; measured here: GNMT inhibition; at 40 µM; stronger effect = lower value. Summed up:
(§1)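 Each enzyme was reacted with SAM and its substrate, with compounds tested once at 40 uM; SAH formed was read by MTase-Glo luminescence.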

Experiment [2] concerns the target Guanidinoacetate N-methyltransferase (Homo sapiens) (UniProt Q14353). To be noted: purified enzyme, MTase-Glo SAH luminescence; measured here: GAMT inhibition; at 40 µM; stronger effect = lower value. Summed up: as §1
In experiment [3] the target is Histamine N-methyltransferase (Homo sapiens) (UniProt P50135). The conditions noted are these: purified enzyme, MTase-Glo SAH luminescence; measured here: HNMT inhibition; at 40 µM; stronger effect = lower value. An outline of the steps: as §1
Experiment [4] concerns the target Nicotinamide N-methyltransferase (Homo sapiens) (UniProt P40261). The conditions noted are these: purified enzyme, MTase-Glo SAH luminescence; measured here: NNMT inhibition; at 40 µM; stronger effect = lower value. An outline of the steps: as §1
Experiment [5] deals with Phenylethanolamine N-methyltransferase (Homo sapiens) (UniProt P11086). The conditions noted are these: purified enzyme, MTase-Glo SAH luminescence; measured here: PNMT inhibition; at 40 µM; stronger effect = lower value. An outline of the steps:
as §1

The list shows a part of the results. These are further read-outs of the screen, such as a control signal, another cell line or another target. No call is given for them.
On the % scale 0 is the no-effect control and ±100 the full control effect.

As to `COCCn1c(=O)c2c(n1Cc1ccccc1)CN(C(=O)Cc1cccc(F)c1)CC2`, the activity change, negative = inhibition in experiment [1] is -0.164%; in experiment [2], -2.3%; in experiment [3], -1.41%; in experiment [4], -5.68%; in experiment [5], -1.68%.
In the same order, the values of `CC(C)CN(CCCN1C(=O)c2cc3occc3n2CC1(C)C(=O)NC1CCCCCC1)CC(C)C` (stereo not drawn) are -3.67%, 4.65%, -1.15%, 5.13% and -2.88%.
The corresponding values for `COc1ccc(S(=O)(=O)Nc2c(C)cc(C)cc2C)cc1` are -2.84%, -8.22%, 5.18%, -34% and -3.46%.
Regarding `CC(c1c[nH]c2ccccc12)C(O)C(=O)O` (stereo not drawn), the activity change, negative = inhibition was 2.31% in experiment [1]; 5.01% in experiment [2]; 6.17% in experiment [3]; -6.89% in experiment [4]; 5.54% in experiment [5].
In the case of `CSc1ccc(CCN2C(=O)CSc3c(c4ccccc4n3C)C2C(=O)NCc2ccccc2)cc1` (stereo not drawn), the activity change, negative = inhibition in experiment [1] stood at 8.58%; in experiment [2], 3.97%; in experiment [3], 3.9%; in experiment [4] it was 0.128%; in experiment [5] it was 6.75%.
The corresponding values for `COc1cc2c(cc1O)CC[C@H]1[C@@H]2CC[C@]2(C)[C@H](O)CC[C@@H]12` are -13.6%, -13.8%, -15.1%, -21.6% and -13.9%.
With `CCOC(=O)CCNC(=O)N1CCCC(c2nc(-c3cnccn3)no2)CCNC(=O)CC1` (stereo not drawn), the activity change, negative = inhibition was -3.27% in experiment [1]; -5.68% in experiment [2]; -0.395% in experiment [3]; -6.34% in experiment [4]; -2.59% in experiment [5].
Take `O=C(CSc1nnc2n(Cc3ccccc3)c(=O)c3ccccc3n12)Nc1ccc(F)cc1F`: the activity change, negative = inhibition is -3.92% in experiment [1]; 2.52% in experiment [2]; 8.94% in experiment [3]; -1.93% in experiment [4]; 1.59% in experiment [5].
The corresponding values for `CCOC(=O)c1cc2n(n1)CC(C)(C(=O)NC1CCCCCC1)N(c1ccc(C)c(C)c1)C2=O` (stereo not drawn) are -4.55%, 0.691%, -4.38%, 3.05% and 4.2%.
Turning to `O=C(c1ccc(Cl)cc1)N1CCC2(CC1)CC(c1ccccc1)=NO2`, the activity change, negative = inhibition in experiment [1] was -7.83%; in experiment [2], -1.4%; in experiment [3], 0.268%; in experiment [4], -5.13%; in experiment [5] it was 0.759%.
In the same order, the values of `C#CCNC(=O)[C@H]1O[C@H](CCN(C)CC#C)CC[C@@H]1O` are -1.27%, -2.38%, -0.244%, -5.27% and 0.672%.
For the compound `CC(C)Cn1c(=O)c2cc(F)ccc2n2c(SCc3ccc(F)cc3)nnc12`, the activity change, negative = inhibition in experiment [1] was 3.88%; in experiment [2] it was 5.18%; in experiment [3], 11.5%; in experiment [4], 0.045%; in experiment [5], 5.99%.
In the same order, the values of `CC(=O)Nc1c2n(c3ccc(F)cc13)CC(C)(C(=O)NCCC(C)C)N(Cc1ccccc1F)C2=O` (stereo not drawn) are 5.34%, 0%, 6.59%, 9.78% and 4.06%.
The corresponding values for `CCCCCN(CCCCC)C(=O)C(CCC(=O)O)NC(=O)c1ccc(Cl)c(Cl)c1` (stereo not drawn) are -2.98%, 10.2%, 6.93%, -15% and -3.83%.
The corresponding values for `CCCN1C(=O)c2cc(C(=O)NCc3ccc(C)cc3)nn2CC1(C)C(=O)NC1CCCC1` (stereo not drawn) are -1.73%, 3.21%, -0.766%, 1.21% and 0.202%.
Consider `Cc1cccc(CCNC(=O)CCc2nnc3n(CCc4ccccc4)c(=O)c4ccccc4n23)c1`, for which the activity change, negative = inhibition was -7.84% in experiment [1]; 0% in experiment [2]; 8.14% in experiment [3]; -5% in experiment [4]; 0.494% in experiment [5].
For the compound `Cc1cc(Nc2cccc(C(F)(F)F)c2)nc2ccc(NC(=O)Cc3ccc(Cl)cc3)cc12`, the activity change, negative = inhibition in experiment [2] is -11.4%; in experiment [4] it was -25.3%; in experiment [5], -5.83%.
For `CC(C)Oc1ccc(CN2C(=O)c3cc4sccc4n3CC2(C)C(=O)NC2CCCCCC2)cc1` (stereo not drawn), the activity change, negative = inhibition is -3.25% in experiment [1]; 3.33% in experiment [2]; 3.75% in experiment [3]; 2.73% in experiment [4]; -2.67% in experiment [5].
`C=C[C@H](/C=C\c1ccc(O)cc1)c1ccc(O)cc1`: the activity change, negative = inhibition in experiment [1] was -3.91%; in experiment [2], -4.58%; in experiment [3] it was -1.64%; in experiment [4], -18.1%; in experiment [5] it was 0.541%.
In the same order, the values of `Cc1cc(N2CCOCC2)cc2[nH]c(-c3c(NC[C@@H](O)c4cccc(Cl)c4)cc[nH]c3=O)nc12` are -11%, 6.82%, -8.82%, -20.6% and 0.116%.
In the same order, the values of `C[S+](=O)([O-])N1CC2(CCN(Cc3c[nH]c4ccccc34)CC2)Cc2ccccc21` are -10.1%, -7.32%, -25.7%, -17.4% and -8.51%.
In the same order, the values of `Cn1cnnc1CC1CCN(C(=O)CN2CC(c3ccccc3)CC2=O)CC1` (stereo not drawn) are 0.432%, 0.29%, 2.21%, -2.43% and -2.56%.
With `CCCN1C(=O)c2cc(C(=O)NCc3ccc(F)cc3)nn2CC1(C)C(=O)NC1CCCC1` (stereo not drawn), the activity change, negative = inhibition in experiment [1] was 0.069%; in experiment [2], 3.65%; in experiment [3] it was 2.42%; in experiment [4], -1.62%; in experiment [5], -0.896%.
The corresponding values for `CC(C)NCC(O)c1ccc(O)c(O)c1` (stereo not drawn) are -21.9%, -3.25%, -1.93%, -12.9% and -3.38%.
In the same order, the values of `O=C1NC2(CN(C(=O)c3ccccc3)C2)Oc2ccccc21` are -6.31%, -2.22%, 2.5%, -8.24% and 1.77%.
As for `CCCn1c(=O)c2ccc(C(=O)NC(C)CC)cc2n2c(=O)n(Cc3ccc(C)cc3)nc12` (stereo not drawn), the activity change, negative = inhibition in experiment [1] is 1.42%; in experiment [2] it was 0%; in experiment [3] it was 2.23%; in experiment [4], -2.81%; in experiment [5] it was 3.14%.
For `CC1(C(=O)NCc2ccccc2)Cn2c(cc3ccccc32)C(=O)N1Cc1cccc(Br)c1` (stereo not drawn), the activity change, negative = inhibition in experiment [1] is 4.87%; in experiment [2], 0.354%; in experiment [3], 4.07%; in experiment [4] it was 2.01%; in experiment [5], -0.748%.
The corresponding values for `CC1CCC2C(C)(C)C(O)C(O)CC2(C)C12Cc1c(O)cc(CO)c(C=O)c1O2` (stereo not drawn) are -1.81%, 0.816%, 11.6%, -12.3% and -8.93%.
For `Cc1ccccc1OCc1nc(C2CN(C(=O)NC(C)C)C2)no1`, the activity change, negative = inhibition in experiment [1] is -0.243%; in experiment [2], 0.849%; in experiment [3] it was 0.847%; in experiment [4], -4.35%; in experiment [5] it was 2.6%.
The corresponding values for `CC(C)Cn1c(=O)c2cc(F)ccc2n2c(SCC(=O)Nc3ccc(Cl)cc3)nnc12` are 3.69%, 0%, 7.13%, -5.59% and 3.83%.
In the same order, the values of `COc1ccc(-n2c(=O)[nH]c3cccnc32)cc1OC` are -11.8%, -8.44%, -3.55%, -13% and 1.38%.
